Data published in PubChem BioAssay AID1030 (National Center for Advancing Translational Sciences (NCATS), 2008).
In all, about 220,000 compounds went through this assay and about 16,000 (7.3%) were called active. Inconclusive means that the source gave no clear call. Such entries were picked first, then a sample of the others. Calls follow the shape of the dose curve; as a rule, active = well fitted inhibition curve with a large enough effect (not every such curve was filed as active); inconclusive = small, poorly fitted or top-dose-only effect, or another doubt; inactive = no such curve, though single readings can be large or run the other way. No potency is given beside an inconclusive call; the fits are too rough.

These molecules were tested against Aldehyde dehydrogenase 1A1 (Homo sapiens) (UniProt P00352) (assay: qHTS Assay for Inhibitors of Aldehyde Dehydrogenase 1 (ALDH1A1)). Conditions: Purified ALDH1A1, NADH fluorescence, propionaldehyde substrate; series mostly up to 75.3 µM.
Chain of UniProt P00352 (P00352 whole entry, looked up): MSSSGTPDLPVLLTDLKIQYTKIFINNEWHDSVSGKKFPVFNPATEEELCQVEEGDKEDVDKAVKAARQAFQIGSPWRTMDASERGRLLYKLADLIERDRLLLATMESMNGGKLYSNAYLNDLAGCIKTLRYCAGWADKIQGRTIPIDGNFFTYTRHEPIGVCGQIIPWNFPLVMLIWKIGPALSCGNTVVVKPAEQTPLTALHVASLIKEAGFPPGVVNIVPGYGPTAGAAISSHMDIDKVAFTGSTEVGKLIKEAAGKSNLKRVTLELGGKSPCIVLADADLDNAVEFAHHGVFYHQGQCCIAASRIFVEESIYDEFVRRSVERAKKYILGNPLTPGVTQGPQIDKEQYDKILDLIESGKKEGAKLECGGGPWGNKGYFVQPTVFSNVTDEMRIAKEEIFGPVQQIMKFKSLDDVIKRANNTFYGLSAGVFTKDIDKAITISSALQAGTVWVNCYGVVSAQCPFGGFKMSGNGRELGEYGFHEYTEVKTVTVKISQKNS

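For activity, negative = inhibition in this document: plate controls were no enzyme wells and a reference inhibitor.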
Potency is read from the fitted curve at half-maximal effect; tags tell the direction and shape of the fitted curve.

Row | Compound | Potency | activity, negative = inhibition
1 | COc1ccc(Nc2nc(Nc3ccc(OC)cc3)nc(-n3[nH]c(=O)c(C)c3C)n2)cc1 | active: 25.1 µM | –
2 | CC(C)(C)NC(=O)CSCc1c(Cl)cccc1Cl | inactive | –
3 | COc1cccc(/C=N/NC(=O)CCn2c3ccccc3c3ccccc32)c1 | inactive | –
4 | CCc1ccc(C(=O)CSc2n[nH]c(C)n2)cc1 | active: 11.2 µM | –
5 | C/C(=N/NC1=NCCN1)c1cn(C2=NCCN2)nc1C | – | inactive: -8.84% [at 13.5 µM]
6 | O=C(/C=C/c1ccccc1)CC(O)(c1ccccc1)C(F)(F)C(F)F (stereo unspecified) | inconclusive [inhibitor, single point] | –
7 | O=S(=O)(c1ccc(Br)cc1)N1CCCN(Cc2ccccc2F)CC1 | inconclusive [inhibitor, single point] | –
8 | CN(C)C(=O)c1ccc(-c2cncnc2NCc2cccnc2)cc1 | inconclusive [inhibitor, single point] | –
9 | C=CCN(CC=C)C(=O)COC(=O)c1n[nH]c2ccccc12 | inconclusive [inhibitor, single point] | –
10 | COc1cccc(SCC2(O)CCN(C(=O)c3ccc(Cl)cc3)CC2)c1 | inconclusive [inhibitor, single point] | –
11 | O=C(NCCc1ccccc1)c1cccc(Br)n1 | inactive | –
12 | COc1cc(/C=C/C(=O)OCC(=O)NC(=O)NC(C)(C)C)ccc1OCC#N | inconclusive [inhibitor, single point] | –
13 | CCC/C=C(\CCC)C(NC(=O)c1ccc(C(=O)OC)cc1)c1ccc(C(=O)OC)cc1 (stereo unspecified) | inactive | –
14 | CCOC(=O)/C(C#N)=C1/C=CN(C)C=N1 | active: 14.1 µM | –
15 | O=C(NCc1cccnc1)c1nc(-c2cccs2)no1 | inactive | –
16 | CCCC/C=C/C(NC(=O)c1ccccc1)c1ccccc1 (stereo unspecified) | inconclusive [inhibitor, single point] | –
17 | Cc1cccc(NC(=O)c2cc(-c3ccccn3)nc3ccccc23)c1C | inactive | –
18 | CC(C)OCCCNC(=S)Nc1ccc(S(N)(=O)=O)cc1 | inactive | –
19 | CCCc1cc(=O)oc2c(C)c(O)c(CN3CCCCC3)cc12 | inconclusive [inhibitor, partial curve] | –
20 | CCOC(=O)C1CCCN(C(=O)CSc2ccccc2)C1 (stereo unspecified) | inconclusive [inhibitor, single point] | –
21 | CCCCCC(=O)Nc1ccc(C(=O)N/N=C/c2ccc([N+](=O)[O-])cc2)cc1 | inactive | –
22 | Cc1ccc(NC(=O)CNCCCN2CCOCC2)cc1S(=O)(=O)N1CCCCC1 | inconclusive [inhibitor, partial curve] | –
23 | CN(C)c1ccc(/C=N/N=C2/NC(=O)/C(=C/c3ccc([N+](=O)[O-])cc3)S2)cc1 | active: 25.1 µM | –
24 | CCn1c(SC(C)C)nnc1-c1cc(-c2ccccc2)sc1N | inconclusive [inhibitor, single point] | –
25 | O=C(NCCOc1ccccc1Cl)c1cc(F)c(F)cc1Cl | inconclusive [inhibitor, single point] | –
26 | CCCCn1c2c(c(=N)c3c1CCC3)CCC2 | inactive | –

Row | Compound | Potency | activity, negative = inhibition
27 | CCOC(=O)c1c(-c2ccc(C)s2)csc1NC(=O)c1cccs1 | inconclusive [inhibitor, single point] | –
28 | CCCCC(c1nnnn1CC1CCCO1)N1CCN(Cc2ccccc2)CC1 (stereo unspecified) | inconclusive [inhibitor, single point] | –
29 | CC1(C)Cc2nc3sc4c(SCC(=O)NCc5ccco5)ncnc4c3cc2CO1 | active: 8.91 µM | –
30 | CC(=O)N1CCc2ccc(C(=O)CN3CCN(c4cccc(C)c4C)CC3)cc21 | active: 8.91 µM | –
31 | COc1cccc(C2CC(c3c(-c4ccccc4)c4cc(Cl)ccc4[nH]c3=O)=NN2S(C)(=O)=O)c1OC (stereo unspecified) | active: 5.01 µM | –
32 | COc1ccccc1NC(=O)CNc1ccc(F)c(Cl)c1 | inactive | –
33 | O=C(c1ccc(Cl)c(Cl)c1)c1cc(-c2ccccn2)c(N2CCOCC2)s1 | inconclusive [inhibitor, single point] | –
34 | COC(=O)c1ccc(C2Nc3cccc4cccc(c34)N2)cc1 | inactive | –
35 | Cc1c(/C=C/C(=O)c2ccc(C(C)C)cc2)cnn1C | inactive | –
36 | Cc1ccc(N(Cc2ccc(C(=O)NN=C3CCN(C)CC3)cc2)S(C)(=O)=O)cc1C | inconclusive [inhibitor, partial curve] | –
37 | CC(=O)C1=C(C)Nc2ncnn2C1c1ccccc1Cl (stereo unspecified) | active: 25.1 µM | –
38 | CC1CN(S(=O)(=O)c2cccc(-c3cn4cccnc4n3)c2)CC(C)O1 (stereo unspecified) | inconclusive [inhibitor, full curve] | –
39 | COc1ccc(N2CCN(CCCn3c(=S)[nH]c4ncccc4c3=O)CC2)cc1 | inconclusive [inhibitor, single point] | –
40 | CCOC(=O)c1csc(N)n1 | inconclusive [inhibitor, partial curve] | –
41 | C=CCN1C(=O)/C(=N/n2cnnc2)c2ccccc21 | active: 0.0631 µM | –
42 | O=C1CCCc2c1[nH]c1ccccc21 | inactive | –
43 | Cc1ccc(NC(=O)c2ccc(Nc3c([N+](=O)[O-])cc([N+](=O)[O-])cc3[N+](=O)[O-])cc2)cc1 | active: 0.562 µM | –
44 | Cc1ccc(S(=O)(=O)N2CCCCC2)cc1NC(=O)COC(=O)c1c(F)cccc1F | inconclusive [inhibitor, single point] | –
45 | CCCn1c(-c2ccc(F)cc2)nc2c(NCCN3CCCCC3)nc(C)nc21 | inconclusive [inhibitor, single point] | –
46 | CCOC(=O)c1nnn(-c2ccccc2)c1C | inactive | –
47 | COc1cccc(NC(=O)C(NCCC(C)C)c2ccccc2)c1 (stereo unspecified) | inconclusive [inhibitor, single point] | –
48 | COC(=O)c1c(-c2ccc(C)cc2)csc1NC(=O)c1c(-c2ccccc2)noc1C | inconclusive [inhibitor, partial curve] | –
49 | COc1ncc2nc(-c3ccccc3)c(=O)n(CCC#N)c2n1 | inconclusive [inhibitor, partial curve] | –
50 | CC1(C)N=C(N)N=C(N)N1c1cccc(OCc2cccc(N)c2)c1 | – | inactive: 6.15% [at 13.5 µM]
51 | COCc1cc(C)nc(Nc2ccc(C)c(C)c2)c1C#N | active: 28.2 µM | –
52 | O=C(CCc1nc2ccccc2s1)OCC(=O)c1ccc[nH]1 | inactive | –

Row | Compound | Potency | activity, negative = inhibition
53 | C=CCn1c(=NC(=O)c2ccco2)sc2cc(C(=O)OCC)ccc21 | inconclusive [inhibitor, single point] | –
54 | CCOc1cc(C2C(C#N)=C(N)Oc3n[nH]c(-c4ccccc4)c32)ccc1O (stereo unspecified) | inconclusive [inhibitor, single point] | –
55 | O=C1CC(=O)Nc2cc(S(=O)(=O)N3CCN(c4cccc(C(F)(F)F)c4)CC3)ccc2N1 | inactive | –
56 | O=c1c(-c2cccc(Cl)c2)nc2cncnc2n1Cc1ccc(F)cc1 | inactive | –
57 | CC(=O)N1CCN(C(=O)COc2ccc(Br)cc2)CC1 | inconclusive [inhibitor, single point] | –
58 | Cn1cnnc1Sc1nc2c(c(=O)n(C)c(=O)n2C)n1Cc1ccccc1Cl | inactive | –
59 | COC(=O)Nc1ccc(Oc2ccccc2)cc1 | inactive | –
60 | Cc1nc2sc(C(c3cccs3)N3CCN(Cc4ccccc4)CC3)c(O)n2n1 (stereo unspecified) | inconclusive [inhibitor, single point] | –
61 | CCOc1cccc(C(=O)NC(=S)Nc2cccnc2)c1 | inconclusive [inhibitor, single point] | –
62 | COc1cccc(CN(C)C(=O)c2cccnc2SC)c1OC | inactive | –
63 | O=C(CC1Sc2ccccc2NC1=O)OCc1cc(=O)oc2cc(O)ccc12 (stereo unspecified) | inconclusive [inhibitor, single point] | –
64 | COc1ccc(-c2ccc(-c3noc(-c4cccc(OC)c4)n3)c(OC)n2)cc1 | inconclusive [inhibitor, full curve] | –
65 | Cn1c(=O)n(C)c2cc(S(=O)(=O)NCc3ccccc3)ccc21 | inconclusive [inhibitor, single point] | –
66 | CC(C)c1ccc(Cn2ccc3c4c(N)nc(NC5CC5)nc4ccc32)cc1 | inactive | –
67 | O=C(CCc1nc(-c2ccccc2)no1)Nc1cc(C(F)(F)F)ccc1Cl | inconclusive [inhibitor, single point] | –
68 | CCOc1ccccc1C(=O)NC(C(=O)OCC(=O)Nc1nnc(-c2ccccc2)o1)C(C)C (stereo unspecified) | inconclusive [inhibitor, partial curve] | –
69 | C=CCn1cnc2c(nnn2-c2cc(C)cc(C)c2)c1=O | inconclusive [inhibitor, partial curve] | –
70 | Cc1ccnc(NC(c2ccsc2)c2ccc3ccc(C)nc3c2O)c1 (stereo unspecified) | active: 25.1 µM | –
71 | COc1cc2[nH]c(=O)n3nc(-c4ccccc4)nc3c2cc1OC | inconclusive [inhibitor, partial curve] | –
72 | COc1ccc(/C(=C\C(=O)O)c2nccc3cc(OC)c(OC)cc23)cc1OC | inactive | –
73 | CSc1ccc(-c2cc(=O)c3ccccc3o2)cc1 | inconclusive [inhibitor, partial curve] | –
74 | COc1cc2c(cc1OC)C(c1cc3cc4c(cc3[nH]c1=O)OCO4)N(C(=O)C1CC1)CC2 (stereo unspecified) | inconclusive [inhibitor, single point] | –
75 | COc1cccc(CC(Cc2nc3ccccc3[nH]2)c2nc3ccccc3[nH]2)c1 (stereo unspecified) | inconclusive [inhibitor, single point] | –
76 | O=C(CCC(=O)OCc1ccc(Cl)cc1)Nc1ccccc1 | inactive | –
